Results taken from the antibiotic and cytotoxicity screens of Wong et al. (2023).
The other results are listed elsewhere or left out.

What follows are compounds tested on HSkMC (human skeletal muscle cells) (assay: cytotoxicity call (relative viability < 0.9)). Conditions: 10 µM.

**Q.** Which cytotoxicity call does the source give for `O=C(C[C@H]1CC[C@H]2[C@@H](COC[C@@H](O)CN2C(=O)Nc2ccc(C(F)(F)F)cc2)O1)NCc1ccncn1` here?
**A.** The cytotoxicity call was “inactive”.

**Q.** For `OC[C@H]1CC[C@@H]2O[C@H](CCc3ccc(C#CCc4ccccc4)cc3)[C@@H](n3cc(-c4ccccc4)nn3)C[C@@H]2O1`, which cytotoxicity call is on record?
**A.** Its cytotoxicity call is “inactive”.

**Q.** How did the cytotoxicity call turn out when `Clc1cccc(Cl)c1CSCc1cc2ccccc2o1` was run?
**A.** Its cytotoxicity call is “inactive”.

**Q.** With `CS(=O)(=O)N1[C@@H]2c3ccc(C4=CCCCC4)c(=O)n3C[C@H]1[C@H](CO)[C@H]2C(=O)N1CCOCC1` as the compound, how does the cytotoxicity call read?
**A.** Its cytotoxicity call is “inactive”.

**Q.** For `COc1cccc(C#Cc2ccc3c(c2)O[C@H](CN(C)S(=O)(=O)c2ccccc2F)[C@H](C)CN([C@H](C)CO)S3(=O)=O)c1`, which cytotoxicity call is on record?
**A.** The cytotoxicity call was “inactive”.

**Q.** For `C[C@@H]1CN([C@@H](C)CO)C(=O)c2cccc(NC(=O)Nc3ccc4c(c3)OCO4)c2O[C@H]1CN(C)S(C)(=O)=O`, which cytotoxicity call is on record?
**A.** Its cytotoxicity call is “inactive”.

**Q.** For `COCC(=O)N1C[C@H](C)[C@@H](OC)CN(C)C(=O)c2ccc(NC(=O)c3ccc(F)cc3)cc2OC[C@H]1C`, which cytotoxicity call is on record?
**A.** The cytotoxicity call was “inactive”.

**Q.** Which cytotoxicity call does the source give for `COc1ccc(S(=O)(=O)N(C)C[C@@H]2Oc3cc(C4=CCCC4)ccc3S(=O)(=O)N([C@H](C)CO)C[C@@H]2C)cc1` here?
**A.** The cytotoxicity call was “inactive”.

**Q.** How did the cytotoxicity call turn out when `COc1ccc(C[C@H](N)C(=O)N[C@H]2[C@@H](O)[C@H](n3cnc4c(N(C)C)ncnc43)O[C@@H]2CO)cc1` was run?
**A.** The cytotoxicity call was “active”.

**Q.** For `O=C(Cc1n[nH]c(=O)[nH]1)NCc1n[nH]c2c1CCCCC2`, which cytotoxicity call is on record?
**A.** Its cytotoxicity call is “inactive”.

**Q.** Which cytotoxicity call does the source give for `CCCNC(=O)N1C[C@]2(CN(C2)S(=O)(=O)c2cccc(c2)OC)c2c(n(c3cc(ccc23)OC)C)[C@H]1CO` here?
**A.** The cytotoxicity call was “inactive”.

**Q.** With `CCCCN(C/C=C/c1ccccc1OC)Cc1ccccc1` as the compound, how does the cytotoxicity call read?
**A.** The cytotoxicity call was “inactive”.

**Q.** With `CC(C)CC#Cc1ccc2c(c1)O[C@H](CN(C)CC1CCOCC1)[C@@H](C)CN([C@H](C)CO)S2(=O)=O` as the compound, how does the cytotoxicity call read?
**A.** Its cytotoxicity call is “inactive”.

**Q.** For `C[C@@H]1CN([C@H](C)CO)C(=O)c2cc(NC(=O)Nc3ccccc3)ccc2O[C@@H](C)CCCCO[C@@H]1CN(C)C(=O)C1CCCCC1`, which cytotoxicity call is on record?
**A.** Its cytotoxicity call is “inactive”.

**Q.** With `C[C@H](CO)N1C[C@H](C)[C@@H](CN(C)C(=O)Nc2cccc(Cl)c2Cl)OCc2ccccc2-c2c(n(C)c3ccccc23)C1=O` as the compound, how does the cytotoxicity call read?
**A.** Its cytotoxicity call is “active”.

**Q.** How did the cytotoxicity call turn out when `COc1ccc(NC(=O)Nc2ccc3c(c2)C(=O)N([C@H](C)CO)C[C@H](C)[C@H](CN(C)Cc2ccc(Oc4ccccc4)cc2)O3)cc1` was run?
**A.** Its cytotoxicity call is “active”.

**Q.** `C[C@@H](O[C@H]1OCCN(Cc2n[nH]nc2CN(C)C)[C@H]1c1ccc(F)cc1)c1cc(C(F)(F)F)cc(C(F)(F)F)c1` was tested. Which cytotoxicity call did it give?
**A.** The cytotoxicity call was “inactive”.

**Q.** How did the cytotoxicity call turn out when `C[C@H](CO)N1C[C@H](C)[C@H](CN(C)Cc2ccccc2)Oc2ccc(NC(=O)Nc3cccc4ccccc34)cc2C1=O` was run?
**A.** The cytotoxicity call was “inactive”.

**Q.** How did the cytotoxicity call turn out when `Cc1ccc(S(=O)(=O)Nc2ccc3c(c2)C(=O)N([C@H](C)CO)C[C@H](C)[C@@H](CN(C)Cc2ccc4c(c2)OCO4)OCCCC[C@H](C)O3)cc1` was run?
**A.** The cytotoxicity call was “inactive”.

**Q.** Which cytotoxicity call does the source give for `CCC[C@@H]1C[C@@H](C(=O)N[C@H]([C@H]2O[C@H](SC)[C@H](O)[C@@H](O)[C@H]2O)[C@@H](C)Cl)N(C)C1` here?
**A.** The cytotoxicity call was “inactive”.

**Q.** Which cytotoxicity call does the source give for `C[C@@H]1CN([C@@H](C)CO)C(=O)c2cccc(NC(=O)c3ccc(-c4nccs4)cc3)c2O[C@@H]1CN(C)C(=O)Nc1cccc2ccccc12` here?
**A.** Its cytotoxicity call is “inactive”.

**Q.** `Cc1ccc(S(=O)(=O)Nc2cc([C@@H](C(=O)OC(C)C)C(=O)C(F)(F)F)c(O)c3ccccc23)c(C)c1` was tested. Which cytotoxicity call did it give?
**A.** Its cytotoxicity call is “inactive”.

**Q.** How did the cytotoxicity call turn out when `O=C(C[C@@H]1CC=CC[C@H](NC(=O)OCC2c3ccccc3-c3ccccc32)C(=O)O[C@H](c2ccccc2)CNC1=O)N[C@@H](CO)Cc1ccccc1` was run?
**A.** Its cytotoxicity call is “active”.

**Q.** `COc1ccc(S(=O)(=O)N(C)C[C@@H]2Oc3ncc(C#Cc4ccc(OC)c(OC)c4)cc3C(=O)N([C@H](C)CO)C[C@@H]2C)cc1` was tested. Which cytotoxicity call did it give?
**A.** Its cytotoxicity call is “inactive”.

**Q.** With `CO[C@@H]1CN(C)C(=O)c2cc(NS(C)(=O)=O)ccc2OC[C@H](C)N(C(=O)C2CCOCC2)C[C@@H]1C` as the compound, how does the cytotoxicity call read?
**A.** Its cytotoxicity call is “inactive”.

**Q.** Which cytotoxicity call does the source give for `C[C@@H]1CN([C@H](C)CO)C(=O)Cc2cc(NC(=O)c3ccncc3)ccc2O[C@H]1CN(C)C(=O)Nc1ccc2c(c1)OCO2` here?
**A.** The cytotoxicity call was “inactive”.

**Q.** With `CC(C)CC#Cc1ccc2c(c1)O[C@H](CN(C)C(=O)Cc1ccccn1)[C@H](C)CN([C@H](C)CO)S2(=O)=O` as the compound, how does the cytotoxicity call read?
**A.** The cytotoxicity call was “inactive”.

**Q.** Which cytotoxicity call does the source give for `O=C(C[C@H]1C[C@H]2c3cc(NC(=O)c4cccnc4)ccc3O[C@H]2[C@H](CO)O1)NCc1cc(F)ccc1F` here?
**A.** The cytotoxicity call was “inactive”.

**Q.** Which cytotoxicity call does the source give for `O=S(=O)([O-])CCCS(=O)(=O)[O-].[Na+].[Na+]` here?
**A.** The cytotoxicity call was “inactive”.

**Q.** With `C[C@H](CO)N1C[C@H](C)[C@H](CN(C)S(=O)(=O)c2cn(C)cn2)Oc2ncc(-c3cc4ccccc4o3)cc2C1=O` as the compound, how does the cytotoxicity call read?
**A.** Its cytotoxicity call is “inactive”.
